About 240 (0.17%) of roughly 140,000 compounds were called active. The shares of active, inactive and inconclusive entries below differ from those in the screen. Calls follow the shape of the dose curve; as a rule, active = well fitted inhibition curve with a large enough effect; inconclusive = small, poorly fitted or top-dose-only effect; inactive = no such curve, though single readings can be large or run the other way. Where the call is inconclusive, the potency comes from a doubtful curve fit.
Test: Primary qHTS assay for inhibitors of alpha-synuclein gene (SNCA) expression; also: nearly all actives have a fitted effect of over 45% in size
Conditions: HEK-293 SNCA-luciferase knock-in, luminescence, 24 h; series mostly up to 57.2 µM
Potency is read from the fitted curve at half-maximal effect; tags tell the direction and shape of the fitted curve.

Potency, inactive:
CC(=O)N[C@H]1CCN(C(=O)C[C@@H]2[C@H](O)CCC3[C@](C)(CO)[C@H](OC(=O)Nc4cccc(F)c4)CC[C@]32C)C1 (some centres not stated)
CCC1Oc2ccc(NC(=O)Cc3cccs3)cc2CN(Cc2ccc(OC)cc2)C1=O (configuration not stated)
CN1CCc2c([nH]c3ccccc23)C12CCN(C(=O)c1cccs1)CC2
COc1ccccc1-c1nc2nccc(-c3ccc(Cl)cc3)n2n1
CC(C(=O)NCc1ccccc1Cl)n1ccc2cc(S(=O)(=O)N3CCCCC3)ccc21 (configuration not stated)
O=C(NC1CCCCCC1)c1nc2sccn2c1-c1ccccc1
N#Cc1cccc(-c2c(C(=O)NCc3ccc(Cl)cc3)nc3sccn23)c1
Cc1cc2nc3n(c(=O)c2n1CC(=O)Nc1ccc(Br)cc1F)CCCCC3
O=C(c1ccc(Cn2cccn2)o1)N1CCCC2(CCC(=O)N(C3CC3)C2)C1 (configuration not stated)
O=C(c1ccc(F)cc1)N1CCCC(C(=O)N2CCC(N3CCOC3=O)CC2)C1 (configuration not stated)
Cc1ccc(NC(=O)C2CCN(c3cc(C(F)(F)F)ncn3)CC2)cc1
Cc1noc(C)c1[S+](=O)([O-])N1CCN(C(=O)c2nc3cccnc3n(Cc3ccccc3)c2=O)CC1
O=c1[nH]c(C2CCN(Cc3ccc(-c4cccnc4)cc3)CC2)nc2ccc(F)cc12
c1ccc(-c2ccnc3nc(-c4cccs4)nn23)cc1
O=C(O)c1ccc(CN2CCC(c3cc(N4CCCC4)ncn3)CC2)cc1
Cc1cc(CN(C)C(=O)c2csc3nc(-c4cccc(C(F)(F)F)c4)cn23)on1
CCOc1ccccc1CN1C[C@@H](CO)[C@H](C(=O)N(C)C)C1
O=C(c1ccccc1C(F)(F)F)N1CCC(n2cnnc2C2CC2)CC1
COc1nc2nc(CCc3ccccc3)n(C)c2cc1-c1ccnc(C)c1
O=C(NCc1cccc(C(F)(F)F)c1)c1nc2sccn2c1-c1ccc(F)cc1
COc1ccc(NC(=O)C2=CC(c3ccco3)=NS(=O)(=O)N2C)cc1
CC(=O)NC1(C)CCN(Cc2cccc(-c3ccc(N4CCOCC4)cc3)c2)C1 (configuration not stated)
COc1ccc(-c2cc(-c3ccc(OC)nc3)cn3cncc23)cc1
COc1ccc(NC(=O)Cn2c(SCc3ccc(C)cc3)nc3cccnc32)cc1OC
COc1ccc(CCNC(=O)c2nc3cccnc3n(C3CCCCC3)c2=O)cc1
Cn1ccnc1C(O)c1cc2n(n1)CCN(C/C=C/c1ccccc1)C2 (configuration not stated)
Cc1cnc(Nc2cccc(CN3CCOCC3)c2)nc1Nc1cccc(S(=O)(=O)NC(C)(C)C)c1

Potency, inconclusive:
COc1cccc(C(=O)N2CCC3(CC2)N(C2CCCC2)C(=O)CS3=O)c1 (configuration not stated) 3.98 µM [inhibitor, partial curve, poor fit]
O=C(Nc1cccc2cccnc12)c1ccccc1[N+](=O)[O-] 5.62 µM [inhibitor, single point]
Cc1ccc(C2c3c(-c4cc(C)ccc4O)n[nH]c3C(=O)N2Cc2ccco2)cc1 (configuration not stated) 7.08 µM [inhibitor, single point]
Cc1ccc(S(=O)(=O)c2cnc(SCC(=O)Nc3cccc(Cl)c3)nc2N)cc1C 12.6 µM [inhibitor, partial curve, poor fit]
Cc1noc(C)c1C(=O)N1CCC2(CCN(Cc3ccc(C#N)cc3)CC2)CC1 39.8 µM [inhibitor, single point]
O=c1c2c(n(Cc3cccnc3)n1-c1ccccc1)CN(Cc1ccccc1Cl)CC2 14.1 µM [inhibitor, partial curve, poor fit]
COc1ncccc1CN1CCCn2nc(C)c(-c3ccccc3C(C)C)c21 56.2 µM [inhibitor, single point]
Cc1ccc(C)c(N2CCN(C(=O)Nc3cn(CC(C)C)c(=O)c4ccccc34)CC2)c1 28.2 µM [inhibitor, single point]
Cc1ccc2c(c1)c(=O)c1ccccc1n2CCCC(=O)Nc1ccc(C)c(F)c1 31.6 µM [inhibitor, single point]
CN(C)c1cc(N2CCCC(NS(C)(=O)=O)C2)ncn1 (configuration not stated) 11.2 µM [inhibitor, partial curve]
COc1cccc(-c2cc(C3CCN(S(=O)(=O)c4ccc(F)cc4F)CC3)[nH]n2)c1 15.8 µM [inhibitor, partial curve, poor fit]
COc1cc(O)c2c(c1)C(=O)c1cc(C)cc(O)c1C2=O 14.8 µM [inhibitor, single point]
O=C1CN(Cc2ccc(-c3ccsc3)cc2)CCN1c1ccc(Cl)nn1 4.47 µM [inhibitor, partial curve, poor fit]
O=C(Nc1ccc(C(F)(F)F)cc1)c1cc(S(=O)(=O)NC2CCCCC2)ccc1F 25.1 µM [inhibitor, partial curve]
Cc1ccc2c(CC(=O)NCc3ccccc3)coc2c1C 6.31 µM [inhibitor, single point]
O=C1c2c(nc(CNc3ccc(F)cc3)n2Cc2ccccc2)NCCN1CC1CC1 20 µM [inhibitor, single point]
Cc1cc(-c2ccc(C)c(S(=O)(=O)Nc3ccccc3C(F)(F)F)c2)on1 22.4 µM [inhibitor, single point]
Cc1ccc(Nc2ccnc(N3CCC(NC(=O)c4ccc(Cl)cc4)CC3)n2)cc1 39.8 µM [inhibitor, single point]
CCOC(=O)c1cnc2c(C)cc(C)cc2c1NCCc1ccc(OC)c(OC)c1 2.51 µM [inhibitor, full curve]
CCSc1ncc(CN2CC[C@@H](NC(=O)c3cnccn3)[C@H](O)C2)cn1 20 µM [inhibitor, partial curve, poor fit]
Cc1cccc(CNS(=O)(=O)c2csc(C(N)=O)c2)c1 6.31 µM [inhibitor, single point]
CS(=O)(=O)N1CCCCC1c1nc(CCOCC2CCCC2)no1 (configuration not stated) 35.5 µM [inhibitor, single point]
COc1ncccc1-c1ccnc(-c2nnc(C)n2C2CCCCC2)c1 20 µM [inhibitor, partial curve, poor fit]
CCOC(=O)c1c(C)[nH]c(CCC(=O)NCCCN2CCN(c3cc(Cl)ccc3C)CC2)c1C 35.5 µM [inhibitor, single point]
Cc1ccccc1-c1cnc2n[nH]c(-c3ccc4c(c3)OCO4)c2n1 28.2 µM [inhibitor, partial curve, poor fit]
COc1ccccc1N1CCN(c2ncnc3c2nnn3C)CC1 2.82 µM [inhibitor, single point]
COc1ccccc1C1c2c(-c3ccc(Cl)cc3)n[nH]c2C(=O)N1c1ccc(C)cc1 (configuration not stated) 25.1 µM [inhibitor, partial curve, poor fit]
Cc1ccccc1S(=O)(=O)Cc1ccc(C(=O)N2CCN(c3cccc(Cl)c3)CC2)o1 17.8 µM [inhibitor, single point]
CCOc1cc(C(=O)N2CCN(c3cc(-c4ccc(Cl)cc4)[nH]n3)CC2)cc(OCC)c1OCC 39.8 µM [inhibitor, partial curve, poor fit]
COc1ccc(CNc2nc(-c3ccco3)nn2S(=O)(=O)c2ccc(Cl)cc2)cc1OC 39.8 µM [inhibitor, partial curve, poor fit]
CN(Cc1cccc(C(=O)Nc2cccc(C#N)c2)c1)CC1COCCO1 (configuration not stated) 11.2 µM [inhibitor, partial curve, poor fit]
COc1ccccc1-c1cc(C(=O)NCCc2ccc(F)cc2)nn2cccc12 11.2 µM [inhibitor, partial curve]
COCCNC(=O)[C@@H]1Cc2cn(Cc3nccn3C)c3cccc(c23)[C@H](CC(C)C)N1 14.1 µM [inhibitor, partial curve, poor fit]
CC1=C[C@@H](CNC(=O)c2ccccn2)[C@H](C(C)C)C[C@H]1CC(=O)N1CCCC1 7.94 µM [inhibitor, full curve, poor fit]
CCOC(=O)CC(NC(=O)CCc1c(C)nc2c(-c3ccccc3)c(C)nn2c1C)c1ccc(OC(C)C)cc1 (configuration not stated) 39.8 µM [inhibitor, single point]
COc1ccc(F)cc1-c1cccc(C(=O)NCCNC(=O)c2ccccc2C)c1 35.5 µM [inhibitor, single point]
Cc1ccc(C)c(CN2C(=O)c3ccccc3S(=O)(=O)c3ccc(C(=O)OCC4CCCO4)cc32)c1 (configuration not stated) 0.708 µM [inhibitor, partial curve, poor fit]
CN(c1ccccc1)S(=O)(=O)c1ccc(NC(=O)c2nc(S(C)(=O)=O)ncc2Cl)cc1 7.08 µM [inhibitor, single point]
O=C(CCc1cc(Cl)no1)N1CCc2nc3cc(-c4ccccc4)[nH]n3c(=O)c2C1 31.6 µM [inhibitor, partial curve, poor fit]
CCCc1cc(C(=O)N2CCC3(CC2)CC(=O)N(CCCOC)C3)n(C)n1 12.6 µM [inhibitor, partial curve]
